Data: PubChem BioAssay (Tox21)
The inconclusive results got no clear call from the source; some entries with a clear call stand among them for comparison. Where a call stands in place of a potency, no number is given. For some assays here: A potency beside an inconclusive call is a rough fit, not a confirmed value. Calls of active or inactive are those of the source. Unless noted, calls follow the shape of the dose curve; as a rule, active = well fitted curve in the direction sought with a large enough effect in the repeat runs; inconclusive = weak or mixed curves; inactive = no such curve, though single readings can be large; an effect the other way counts as inactive or inconclusive.

Tests used:
[1] = A CellTox Green Cytotoxicity Assay to monitor cytotoxicity in HepG2 cells - 32 hour (AID 1224883); also: nearly all actives have a fitted effect of over 50% in size
Summary of the method: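 Measurements at 0, 8, 16, 24, 32 and 40 h of treatment captured CellTox Green fluorescence in HepG2 cells that had been co-plated with reagent and preincubated 5 h at 37 C/5% CO2.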

[2] = qHTS RealTime-Glo MT Cell Viability Assay in HEK293 cells - 24 hour (AID 1224886); also: nearly all actives have a fitted effect of over 50% in size; also: potency is read from the fitted curve at half-maximal effect
Summary of the method: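 Viability tracked continuously by luminescence as live cells reduce a prosubstrate for NanoLuc; HEK293 cells preincubated 5 h, compound-treated at 37 C, and read at 0, 8, 16, 24, 32 and 40 h.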

[3] = A CellTox Green Cytotoxicity Assay to monitor cytotoxicity in HEK293 cells - 16 hour (AID 1224888); also: nearly all actives have a fitted effect of over 35% in size; also: potency is read from the fitted curve at half-maximal effect
Summary of the method: (§1)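 Tox21 screen in HEK293: membrane-impermeant cyanine dye fluoresces on binding dead-cell DNA; compound pinned 5 h post-seeding, plates held at 37 C, signal read repeatedly through 40 h.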

[4] = qHTS RealTime-Glo MT Cell Viability Assay in HepG2 cells - 0 hour (AID 1224889); also: nearly all actives have a fitted effect of over 50% in size; also: potency is read from the fitted curve at half-maximal effect
Summary of the method: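 Viability was tracked continuously by NanoLuc luminescence from prosubstrate reduced by living HepG2 cells, at successive time points over 40 h of compound exposure. Cells with reagent were preincubated 5 h at 37 °C before compound addition.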

[5] = target: Androgen receptor (Homo sapiens) (UniProt P10275); experiment: qHTS assay to identify small molecule antagonists of the androgen receptor (AR) signaling pathway using the MDA cell line in the presence of 0.5 nM R1881 (AID 1259243); also: nearly all actives have a fitted effect of over 50% in size; also: potency is read from the fitted curve at half-maximal effect
UniProt P10275, sequence (P10275 whole entry, looked up): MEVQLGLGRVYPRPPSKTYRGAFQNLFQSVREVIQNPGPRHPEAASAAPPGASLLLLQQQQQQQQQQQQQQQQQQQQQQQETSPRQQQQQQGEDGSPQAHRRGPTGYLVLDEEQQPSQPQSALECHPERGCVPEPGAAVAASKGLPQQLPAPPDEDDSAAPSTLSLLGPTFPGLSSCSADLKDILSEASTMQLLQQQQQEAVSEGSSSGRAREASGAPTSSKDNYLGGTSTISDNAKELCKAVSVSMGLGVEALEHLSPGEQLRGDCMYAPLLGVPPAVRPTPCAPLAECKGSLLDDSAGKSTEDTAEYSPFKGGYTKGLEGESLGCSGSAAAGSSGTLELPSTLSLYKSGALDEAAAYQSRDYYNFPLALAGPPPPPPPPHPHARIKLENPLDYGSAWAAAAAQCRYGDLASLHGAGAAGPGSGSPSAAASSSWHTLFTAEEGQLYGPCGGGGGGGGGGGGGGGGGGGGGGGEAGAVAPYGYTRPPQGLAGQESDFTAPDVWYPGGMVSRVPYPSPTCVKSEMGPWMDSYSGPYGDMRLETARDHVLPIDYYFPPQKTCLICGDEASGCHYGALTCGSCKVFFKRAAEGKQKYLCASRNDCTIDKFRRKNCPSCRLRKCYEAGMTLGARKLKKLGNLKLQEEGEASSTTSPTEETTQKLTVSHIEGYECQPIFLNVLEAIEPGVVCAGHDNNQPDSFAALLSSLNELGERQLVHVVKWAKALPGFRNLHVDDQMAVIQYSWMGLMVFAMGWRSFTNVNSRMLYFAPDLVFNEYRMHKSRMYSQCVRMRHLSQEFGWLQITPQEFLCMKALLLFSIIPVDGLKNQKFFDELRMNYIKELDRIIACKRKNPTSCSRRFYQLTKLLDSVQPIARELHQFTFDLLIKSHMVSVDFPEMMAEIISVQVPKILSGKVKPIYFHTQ
Summary of the method: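 With R1881 held at 0.5 nM (final), compound effects on MMTV-luciferase expression in MDA-kb2 cells were scored by luminescence after a 16 hr, 37C incubation.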

[6] = qHTS assay to identify small molecule HDAC inhibitors - cell viability counter screen (AID 1259365); also: nearly all actives have a fitted effect of over 50% in size
Summary of the method: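 Viability readout: CellTiter-Glo luminescence. Wild-type HCT-116 cells, 2hr compound treatment following overnight attachment at 37 C.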

[7] = qHTS assay to identify small molecule phospholipidosis (PLD) inducers (AID 1259344; active = well fitted curve in the direction sought with a large enough effect; inconclusive = small, poorly fitted or top-dose-only effect, or another doubt; inactive = no such curve, though single readings can be large; an effect the other way counts as inactive or inconclusive; also: potency is read from the fitted curve at half-maximal effect); settings: HepG2 phospholipidosis, LipidTOX Red imaging, 24 h; series mostly up to 38.3 µM
Summary of the method: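 Image-based: LipidTOX Red pit count/intensity per well and per cell; HepG2, 24 h compound at 37 C, PFA fixation, Hoechst counterstain.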

[8] = A CellTox Green Cytotoxicity Assay to monitor cytotoxicity in HEK293 cells - 8 hour (AID 1224884); also: nearly all actives have a fitted effect of over 35% in size; also: potency is read from the fitted curve at half-maximal effect
Summary of the method: as §1

[9] = target: Estrogen receptor (Homo sapiens) (UniProt P03372); experiment: qHTS assay to identify small molecule antagonists of the estrogen receptor alpha (ER-alpha) signaling pathway using the BG1 cell line in the presence of 0.1 nM 17-beta-estradiol (AID 1259244)
UniProt P03372, sequence (P03372 whole entry, looked up): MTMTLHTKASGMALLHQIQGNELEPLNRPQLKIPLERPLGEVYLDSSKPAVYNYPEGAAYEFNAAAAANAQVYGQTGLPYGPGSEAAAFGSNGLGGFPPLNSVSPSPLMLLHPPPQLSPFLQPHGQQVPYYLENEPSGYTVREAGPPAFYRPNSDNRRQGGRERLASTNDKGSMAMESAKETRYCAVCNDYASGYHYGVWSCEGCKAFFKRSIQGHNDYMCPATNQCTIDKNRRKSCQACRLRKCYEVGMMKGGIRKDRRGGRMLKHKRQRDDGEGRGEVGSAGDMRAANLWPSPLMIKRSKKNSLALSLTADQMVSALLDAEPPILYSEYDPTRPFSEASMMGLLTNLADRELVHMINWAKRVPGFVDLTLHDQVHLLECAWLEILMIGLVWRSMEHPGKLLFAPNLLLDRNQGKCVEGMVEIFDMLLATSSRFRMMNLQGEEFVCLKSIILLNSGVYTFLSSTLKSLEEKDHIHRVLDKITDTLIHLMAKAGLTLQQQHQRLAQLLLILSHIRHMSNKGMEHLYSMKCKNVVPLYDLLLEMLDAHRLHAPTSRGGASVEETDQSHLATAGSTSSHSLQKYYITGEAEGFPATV
Summary of the method: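 Compounds were tested against 0.1 nM (final) 17beta-estradiol in VM7Luc4E2 cells, which express full-length ER-alpha and an ERE-luciferase reporter; luminescence was recorded following 22 h exposure.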
Tags tell the direction and shape of the fitted curve.

Structure (SMILES): OCCC1CCCCN1 (stereo not given)
- Potency [1]: inactive
- Potency [2]: inactive

Structure (SMILES): CN(C)C(=O)NC1(c2ccccc2)CCN(CCC[C@]2(c3ccc(Cl)c(Cl)c3)CCCN(C(=O)c3ccccc3)C2)CC1
- Potency [2]: inconclusive: 11.7 µM [cytotoxic, partial curve, poor fit]

Structure (SMILES): CCC(C)(CCC(C)C)C(=O)O (stereo not given)
- Potency [3]: inactive

Structure (SMILES): CCCCCCOC(=O)CCC
- Potency [3]: inactive

Structure (SMILES): Cc1ccc(C(C)NC(=O)[C@@H](NC(=O)OC(C)C)C(C)C)cc1 (stereo not given in full)
- Potency [4]: inconclusive: 48.8 µM [cytotoxic, partial curve, poor fit]

Structure (SMILES): CCN(CC)CCNC(=O)c1cc(Br)c(N)cc1OC
- Potency [4]: inactive

Structure (SMILES): COc1ccc([C@@H]2Sc3ccccc3NC(=O)[C@@H]2O)cc1
- Potency [5]: inactive

Structure (SMILES): Cc1occc1C(=O)Nc1ccc(C(=O)N2CCC(F)(F)/C(=C\C(=O)N3CCC(N4CCCCC4)CC3)c3ccccc32)cc1
- Potency [5]: inconclusive: 21.4 µM [inhibitor, single point]
- Potency [6]: inactive

Structure (SMILES): CC(=O)c1ccc2c(c1)N(CCCN(C)C)c1ccccc1S2
- Potency [7]: inconclusive: 11.2 µM [activator, partial curve, poor fit]

Structure (SMILES): OCC(O)CS (stereo not given)
- Potency [8]: inactive
- Potency [9]: inconclusive: 49.1 µM [inhibitor, partial curve]

Structure (SMILES): CC(=O)NCCCS(=O)(=O)O
- Potency [8]: active: 16.9 µM
- Potency [2]: inactive
- Potency [3]: active: 18.9 µM

Structure (SMILES): Nc1ccnc(=O)[nH]1
- Potency [8]: inconclusive: 61.3 µM [activator, single point]

Structure (SMILES): CC(C)CC=O
- Potency [8]: inactive
- Potency [2]: inactive

Structure (SMILES): CCCCCCCCCCO
- Potency [8]: inconclusive: 21.9 µM [activator, partial curve]
